In the GPR68 mutational scans of Howard et al. (2025):
Scores whose standard error is large were omitted. Two further conditions of the source, in which the scores hardly spread, are not listed. Read del as a deletion of the residues named and ins as an insertion between two positions. For some of these results: How much ogerin was present is not stated here.

B1: GPR68, Q15743 (parent)
chain: MGNITADNSSMSCTIDHTIHQTLAPVVYVTVLVVGFPANCLSLYFGYLQIKARNELGVYLCNLTVADLFYICSLPFWLQYVLQHDNWSHGDLSCQVCGILLYENIYISVGFLCCISVDRYLAVAHPFRFHQFRTLKAAVGVSVVIWAKELLTSIYFLMHEEVIEDENQHRVCFEHYPIQAWQRAINYYRFLVGFLFPICLLLASYQGILRAVRRSHGTQKSRKDQIQRLVLSTVVIFLACFLPYHVLLLVRSVWEASCDFAKGVFNAYHFSLLLTSFNCVADPVLYCFVSETTHRDLARLRGACLAFLTCSRTGRAREAYPLGAPEASGKSGAQGEEPELLTKLHPAFQTPNSPGSGGFPTGRLA

Assays:
[1] = variants of: B1; experiment: cAMP reporter score (Enrich2 score, wild type = 0); higher = more signal; HEK293T, FACS bins
[2] = variants of: B1; experiment: surface expression score (Enrich2 score, wild type = 0); higher = more signal; HEK293T, FACS bins

## MGNITADNSSMSCTIDHTIHQTLAPVVYVTVLVVGFPANCLSLYFGYLQIKARNELGVYLCNLTVADLFYICSLPFWLQYVLQHDNWSHGDLSCQVCGILLYENIYISVGFLCCISVDRYLAVAHPFRFHQFRTLKAAVGVSVVIWAKELLTSIYFLMHEEVIEDENQHRVCFEHYPIQAWQRAINYYRFLVGFLFPICLLLASYQGILRAVRRSHGTQKSRKDQIQRLVLSTVVIFGACFLPYHVLLLVRSVWEASCDFAKGVFNAYHFSLLLTSFNCVADPVLYCFVSETTHRDLARLRGACLAFLTCSRTGRAREAYPLGAPEASGKSGAQGEEPELLTKLHPAFQTPNSPGSGGFPTGRLA [L238G]
[1]; pH 5.5
  cAMP reporter score: 1.01
[1]; pH 6, modulator: ogerin
  cAMP reporter score: 0.509
[1]; pH 6.5, modulator: ogerin
  cAMP reporter score: 0.208
[2]
  surface expression score: -0.65

## MGNITADNSSMSCTIDHTIHQTLAPVVYVTVLVVGFPANCLSLYFGYLQIKARNELGVYLCNLTVADLFYICSLPFWLQYVLQHDNWSHGDLSCQVCGILLYENIYISVGFLCCISVDRYLAVAHPFRFHQFRTLKAAVGVSVVIWAKELLTSIYFLMHEEVIEDENQHRVCFEHYPIQAWQRAINYYRFLVGFLFPICLLLASYQGILRAVRRSHGTQKSRKDQIQRLVLSTVVIFHACFLPYHVLLLVRSVWEASCDFAKGVFNAYHFSLLLTSFNCVADPVLYCFVSETTHRDLARLRGACLAFLTCSRTGRAREAYPLGAPEASGKSGAQGEEPELLTKLHPAFQTPNSPGSGGFPTGRLA [L238H]
[1]; pH 5.5
  cAMP reporter score: -1.55
[1]; pH 6
  cAMP reporter score: -0.105
[1]; pH 6, modulator: ogerin
  cAMP reporter score: -1.21
[1]; pH 6.5, modulator: ogerin
  cAMP reporter score: -0.34
[2]
  surface expression score: -1.44

## MGNITADNSSMSCTIDHTIHQTLAPVVYVTVLVVGFPANCLSLYFGYLQIKARNELGVYLCNLTVADLFYICSLPFWLQYVLQHDNWSHGDLSCQVCGILLYENIYISVGFLCCISVDRYLAVAHPFRFHQFRTLKAAVGVSVVIWAKELLTSIYFLMHEEVIEDENQHRVCFEHYPIQAWQRAINYYRFLVGFLFPICLLLASYQGILRAVRRSHGTQKSRKDQIQRLVLSTVVIFIACFLPYHVLLLVRSVWEASCDFAKGVFNAYHFSLLLTSFNCVADPVLYCFVSETTHRDLARLRGACLAFLTCSRTGRAREAYPLGAPEASGKSGAQGEEPELLTKLHPAFQTPNSPGSGGFPTGRLA [L238I]
[1]; pH 5.5
  cAMP reporter score: 0.299
[1]; pH 6
  cAMP reporter score: 0.116
[1]; pH 6, modulator: ogerin
  cAMP reporter score: 0.623
[1]; pH 6.5, modulator: ogerin
  cAMP reporter score: -0.031
[2]
  surface expression score: 0.523

## MGNITADNSSMSCTIDHTIHQTLAPVVYVTVLVVGFPANCLSLYFGYLQIKARNELGVYLCNLTVADLFYICSLPFWLQYVLQHDNWSHGDLSCQVCGILLYENIYISVGFLCCISVDRYLAVAHPFRFHQFRTLKAAVGVSVVIWAKELLTSIYFLMHEEVIEDENQHRVCFEHYPIQAWQRAINYYRFLVGFLFPICLLLASYQGILRAVRRSHGTQKSRKDQIQRLVLSTVVIFKACFLPYHVLLLVRSVWEASCDFAKGVFNAYHFSLLLTSFNCVADPVLYCFVSETTHRDLARLRGACLAFLTCSRTGRAREAYPLGAPEASGKSGAQGEEPELLTKLHPAFQTPNSPGSGGFPTGRLA [L238K]
[1]; pH 5.5
  cAMP reporter score: -0.656
[1]; pH 6
  cAMP reporter score: -1.88
[1]; pH 6, modulator: ogerin
  cAMP reporter score: -1.41
[1]; pH 6.5, modulator: ogerin
  cAMP reporter score: -1.18
[2]
  surface expression score: -2.34
